About 2,200 (0.55%) of roughly 400,000 compounds were called active. Another 1% or so got no clear call; they are omitted. The call rests on the fitted dose curve; in most records, active means well fitted inhibition curve with a large enough effect; inconclusive means small, poorly fitted or top-dose-only effect, or another doubt; inactive means no such curve, though single readings can be large or run the other way. Only a part is listed here, and it is no random draw. The source holds several records for some structures; these can differ, active in one and inactive in another.
Each molecule was assayed against DNA polymerase kappa (Homo sapiens) (UniProt Q9UBT6) (assay: qHTS for Inhibitors of Polymerase Kappa). Settings: purified Pol kappa, fluorescent DNA synthesis assay, 10 min; series mostly up to 107 µM; activity, negative = inhibition: at the top concentration.
Sequence of UniProt Q9UBT6 (Q9UBT6 whole entry, looked up): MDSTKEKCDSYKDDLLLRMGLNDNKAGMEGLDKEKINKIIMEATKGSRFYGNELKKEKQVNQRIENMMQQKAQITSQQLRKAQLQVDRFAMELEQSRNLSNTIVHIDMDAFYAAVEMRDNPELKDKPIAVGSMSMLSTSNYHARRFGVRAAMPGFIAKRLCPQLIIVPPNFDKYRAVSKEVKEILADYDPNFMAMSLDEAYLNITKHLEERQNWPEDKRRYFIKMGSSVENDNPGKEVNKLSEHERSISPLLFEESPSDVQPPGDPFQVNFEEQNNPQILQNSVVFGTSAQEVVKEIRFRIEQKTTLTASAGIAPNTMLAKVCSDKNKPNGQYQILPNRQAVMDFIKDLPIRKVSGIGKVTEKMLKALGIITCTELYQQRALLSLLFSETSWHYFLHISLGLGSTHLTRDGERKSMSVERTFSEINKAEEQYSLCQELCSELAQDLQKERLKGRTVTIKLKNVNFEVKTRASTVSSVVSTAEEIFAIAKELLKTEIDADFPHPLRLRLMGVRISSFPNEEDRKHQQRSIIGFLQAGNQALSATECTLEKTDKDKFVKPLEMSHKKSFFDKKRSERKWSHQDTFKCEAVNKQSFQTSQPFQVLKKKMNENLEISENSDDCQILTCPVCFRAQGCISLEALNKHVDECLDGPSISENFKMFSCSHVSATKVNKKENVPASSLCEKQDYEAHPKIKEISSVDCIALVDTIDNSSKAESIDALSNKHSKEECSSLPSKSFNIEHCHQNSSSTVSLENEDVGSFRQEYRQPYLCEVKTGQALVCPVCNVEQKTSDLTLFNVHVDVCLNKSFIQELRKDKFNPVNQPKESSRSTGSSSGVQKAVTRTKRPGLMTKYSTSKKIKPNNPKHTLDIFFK
Experimental: The processing and repair of DNA interstrand crosslinks (ICL) in eukaryotic cells are extremely complex, potentially involving multiple DNA repair and damage tolerance pathways, including homologous recombination, nucleotide excision repair, translesion synthesis (TLS), and cell cycle checkpoints.
To that end, in a collaboration between the Oregon Health & Science University and the NIH Chemical Genomics Center a 1536-well high-throughput screen was developed. This fluorescent screen was assayed against the NIH Molecular Libraries Small Molecule Repository (MLSMR) to discover inhibitors of Pol Kappa.
NIH Chemical Genomics Center [NCGC]
NIH Molecular Libraries Probe Centers Network [MLPCN]
Assay Submitter (PI): Stephen Lloyd, Oregon Health & Science University
Three microliters of reagents (buffer in column 3 and 4 as negative control and 10 nM Pol kappa in columns 1, 2, and 5-48) were dispensed into a 1536-well black solid-bottom plate. Compounds (23 nL) were transferred via Kalypsys pin tool equipped with 1536-pin array. The plates were then incubated for 15 min at room temperature, and 1 uL substrate (50 nM final concentration) were then added to start the reaction and kinetically read twice at 0 min and 10 min on the Viewlux reader
On the % scale 0 is the no-effect control and ±100 the full control effect; potency means the concentration at half of the fitted maximal effect.

activity, negative = inhibition, inactive:
CCc1cccc(C)c1NC(=O)Cn1nc(C)n2cccc2c1=O 8.63%
COc1ccccc1C1CC(=O)Oc2cc(C)c(Cl)c(C)c21 (stereo unspecified) -19.8%
COc1ccc2ccc(=O)oc2c1 1.04%
C#CCNC(=O)C1=C[C@@H](c2ccc(C#C)cc2)C[C@@H](OCc2ccc(CO)cc2)O1 -4.42%
CCOC(=O)[C@@H]1[C@H]2COc3ccccc3[C@@H]2N2C(=O)N(c3ccc(F)cc3)C(=O)[C@]12C -9.32%
CC(C)(C)OC(=O)N[C@@H](Cc1c[nH]c2ccccc12)C(=O)O 12.5% [at 60.1 µM]
COc1ccc2cc([C@@H](C)C(=O)O)ccc2c1 -11.9%
O=C1OCCN1C(=O)[C@H]1[C@H](c2ccc([N+](=O)[O-])cc2)C(c2cccc(Cl)c2)=NN1c1ccc(Br)cc1 1.41%
CC(C)C[C@H](NC(=O)[C@H]1O[C@@H]1C(=O)O)C(=O)NCCCCN=C(N)N 17.6% [at 60.1 µM]
COc1cccc(N2CCN(C(=O)CCS(=O)(=O)c3ccc4c(c3)oc(=O)n4C)CC2)c1 -11.8%
Oc1ccc2c(c1)OCC1(O)Cc3cc(O)c(O)cc3C21 (stereo unspecified) 0%
O=C1OCCN1C(=O)[C@H]1[C@H](c2ccc([N+](=O)[O-])cc2)C(c2ccc(F)cc2)=NN1c1ccc(Br)cc1 -13.5%
C[C@H](NC(=O)Cc1cc(F)cc(F)c1)C(=O)N[C@@H](C(=O)OC(C)(C)C)c1ccccc1 16.8% [at 60.1 µM]
CCCCCCCC/C=C\CCCCCCCC(=O)NCCc1ccc(O)c(O)c1 -14.3%
CC(C)(C)c1ccc([C@@H](O)CCCN2CCC(C(O)(c3ccccc3)c3ccccc3)CC2)cc1 -7.96% [at 12 µM]
O=C(O)[C@@H]1CCCN1 -5.46% [at 60.1 µM]
CCOC(=O)c1c(C)[nH]c(C(=O)COC(=O)C(C)N2C(=O)C3CCCCC3C2=O)c1C (stereo unspecified) -4.73%
COc1ccc(-c2cc(=O)c3c(O)cc(O[C@@H]4O[C@H](CO[C@@H]5O[C@@H](C)[C@H](O)[C@@H](O)[C@H]5O)[C@@H](O)[C@H](O)[C@H]4O)cc3o2)cc1O -17.6%
COc1cc(NC(=O)C2CCN(c3cnccn3)CC2)cc(OC)c1 -3.92%
Cn1cc(C=C2C(=O)Nc3cccnc32)c2ccccc21 -8.16% [at 60.1 µM]
Cc1nn(-c2ccc(N3CCCCC3)nn2)c(C)c1CCC(=O)NCc1ccc(F)cc1 26.1%
COc1ccc(C2CC(=O)Oc3cc(C)cc(C)c32)cc1 (stereo unspecified) 9.09%
CC(C)(O)[C@H](O)COc1c2ccoc2cc2oc(=O)ccc12 -17.3%

Potency, active:
Cc1cccc(NC(=O)CSc2nnc(-c3ccco3)c(-c3ccco3)n2)c1 79.4 µM
Cn1c(SCC(=O)c2cc(Cl)c(Cl)s2)nnc1-c1ccco1 31.6 µM
Cc1ccc(/C=c2\sc3nc(-c4ccccc4Br)nn3c2=O)o1 20 µM
N=C1/C(=C\c2ccc(SCc3ccco3)o2)C(=O)N=C2SC=NN12 50.1 µM
Oc1cccc(/C=N/N=C/c2cccc(O)c2O)c1O 11.2 µM
COc1cc(CCc2ccccc2)c(C(=O)O)c(O)c1C/C=C(/C)CCC=C(C)C 79.4 µM
Cc1ccc(CN2C(=O)N/C(=C\c3cccn3-c3cccc(C(=O)O)c3)C2=O)cc1 50.1 µM
O=C1CSC(=S)N1/N=C/c1cc(Br)c(O)c(Br)c1 15.8 µM
COC1=CC(=Cc2c(N)n3nc(CC(=O)N4CCOCC4)sc3nc2=O)C=C(OC)C1=O 79.4 µM
COc1ccc(C2=Nn3c(nnc3-c3ccccc3OC)SC2)cc1OCC1CC1 39.8 µM
CCc1ccc(/C(C)=N/NC(=O)CNC(=O)/C=C/c2ccco2)cc1 31.6 µM
COc1ccc(/C=N/NC(=O)c2nn(-c3ccccc3)c(=O)c3c(N)scc23)cc1 35.5 µM
COc1ccc(NC(=O)CN(C)C(=O)c2cccc(-n3cccc3)c2)cc1 44.7 µM
CSCCOC(=O)c1[nH]c2c(c1C)C(=O)CC(c1ccco1)C2 (stereo unspecified) 31.6 µM

Potency, inactive:
OC[C@H]1OC(O)[C@H](O)[C@@H](O)[C@H]1O (stereo partly specified)
COc1ccc(-c2cc(=O)c3ccc(O)cc3o2)cc1
COC(=O)[C@@H]1[C@H]2C[C@H]3c4[nH]c5ccccc5c4CCN3C[C@@H]2CC[C@@H]1O
CC(=O)NC(CC(=O)O)C(=O)O (stereo unspecified)

— PubChem BioAssay AID588579 (National Center for Advancing Translational Sciences (NCATS), 2011)
